# According to PubChem BioAssay AID1508623 (National Center for Advancing Translational Sciences (NCATS), 2021):
# Hit rate of the full screen: of about 48,000 compounds, about 450 (0.94%) were called active. About 19% were inconclusive and are not listed. The call rests on the fitted dose curve; in most records, active means well fitted inhibition curve with a large enough effect; inconclusive means small, poorly fitted or top-dose-only effect; inactive means no such curve, though single readings can be large or run the other way. This is one part of the list.
# Assay: Primary qHTS for Identification of Small Molecule Inhibitors of Huntingtin Promoter Activity; further: nearly all actives have a fitted effect of over 50% in size
# Conditions: HEK293 HTT promoter firefly luciferase reporter (activity 0% = vehicle and -100% = no light), 24 h; series mostly up to 57.5 µM; activity change, negative = inhibition: at the top concentration
# In short: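 Quantitative HTS used concentration series of up to 57.5 uM final on HEK293 luciferase reporter cells, 24 h at 37 degrees C. Readout was Dual-Glo firefly luminescence.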
row,Compound,"activity change, negative = inhibition"
1,COc1ccccc1NC(=O)C(Cc1ccccc1)NS(=O)(=O)c1ccc2c(c1)CCN2C(C)=O (stereo not drawn),inactive: -15.9%
2,O=C(O)c1ccc(Nc2nc3ccccc3c3nncn23)cc1,inactive: 20.4%
3,CC(=O)N1CCOc2cc(S(=O)(=O)NCc3ccccc3Cl)c(C)cc21,inactive: -0.699%
4,NC(=O)c1ccc(N(C(N)=O)c2c(F)cccc2F)nc1-c1ccc(F)cc1F,inactive: -15.9%
5,CCOC(=O)c1ccc(NC(=O)CSc2nc3ncc(Br)c(C)c3[nH]2)cc1,inactive: -6.38%
6,COCCCNC(=O)c1ccc(Cn2c(=O)c3ccccc3n(CC(N)=O)c2=O)cc1,inactive: -7.77%
7,COc1ccc(-c2cc3nc(N)cc(=O)n3[nH]2)cc1,inactive: 26.9%
8,CCC(=O)N1c2ccccc2CC1C(=O)NCCCN1CCN(c2cc(C)ccc2C)CC1 (stereo not drawn),inactive: -20.7%
9,O=C(NCCCc1nc2ccccc2n1Cc1ccc(F)cc1)C1CCCCC1,inactive: -24.1%
10,Cc1ccc(C)c(CSc2nc3c([nH]c4ccccc43)c(=O)n2C)c1,inactive: 0.0369%
11,Cc1cccc(C)c1OCc1cc(=O)n2c(-c3ccccc3)csc2n1,inactive: -20.4%
12,COc1ccc(NC(=O)c2cc(S(=O)(=O)N3CCOCC3)cn2C)cc1Cl,inactive: -13.3%
13,O=C1CS(=O)(=O)C2(C(=O)Nc3ccccc32)N1c1cccc(Cl)c1 (stereo not drawn),inactive: -10.2%
14,COc1cccc2c1cc1c(=O)n(CC(=O)N3CCN(c4ccccc4F)CC3)nc(C)n12,inactive: -9.18%
15,CCOc1ccc(NC(=O)CCCc2nc(-c3cccc(OC)c3)no2)cc1,inactive: 2.22%
16,Cc1ccc(CNC(=O)c2sc3nc(C)cc(C)c3c2-n2cccc2)cc1,inactive: -1.84%
17,Cc1cccc(Cn2c(C)c(C)c3cc(C(=O)NCc4ccco4)ccc32)c1,inactive: -26.9%
18,COc1ccc2[nH]c(=O)c(CN(C(=O)c3cccc(Cl)c3)c3ccccc3OC)cc2c1,inactive: -18.5%
19,CS(=O)(=O)N1CCc2cc(S(=O)(=O)NCc3ccccc3Cl)ccc21,inactive: -24.5%
20,CC(=O)Nc1ccccc1OCc1cc(=O)n2c3c(sc2n1)CCCC3,inactive: -0.49%
21,Cn1c2ccccc2c2cnn(CC(=O)NCc3ccc(Cl)cc3)c(=O)c21,inactive: 2.26%
22,COc1ccc(-c2nc(Cn3c(SCc4cccc(Cl)c4)nc4ccncc43)c(C)o2)cc1,inactive: -28.2%
23,Cc1ccc(Sc2c(C)nn(C(=O)COc3ccccc3)c2C)cc1,inactive: -18.3%
24,Cn1cnc(S(=O)(=O)N2CCC(C(=O)NCc3ccccc3)CC2)c1,inactive: -23.4%

row,Compound,"activity change, negative = inhibition"
1,CC1=C(c2ccc(F)cc2)S(=O)(=O)N=C1N1CCC(C(=O)NCCc2ccco2)CC1,inactive: -18.2%
2,CCOC(=O)c1c(S(=O)(=O)N2CCCC(C(=O)N(C)Cc3ccccc3)C2)c(C)n(C)c1C (stereo not drawn),inactive: -7.9%
3,COc1cc(NC(=O)Cn2ccn(Cc3ccccc3OC)c(=O)c2=O)cc(OC)c1,inactive: -13.8%
4,O=C(CN1CCN(Cc2ccc(F)cc2Cl)S1(=O)=O)Nc1ccc(F)cc1,inactive: -20.2%
5,COc1ccccc1NC(=O)CSc1nc2ccccc2c(=O)n1CCC(=O)NC1CCCCC1,inactive: 4.52%
6,Cc1ccc(C(c2sc3nc(-c4ccco4)nn3c2O)N2CCOCC2)cc1 (stereo not drawn),inactive: 2.75%
7,Cc1ccc(Cn2nc(C)c(NC(=O)c3cc(-c4ccc(F)cc4)on3)c2C)cc1,inactive: -20.3%
8,Cc1ccc(NC(=O)Cn2c(C)cc(C)c(C#N)c2=O)cc1,inactive: -3.11%
9,CCN(CC)CCOC(=O)C1(C2CCCCC2)CCCCC1,inactive: 2.35%
10,CCCCOCCOCCOCc1cc2c(cc1CCC)OCO2,inactive
11,Oc1ccccc1,inactive: 0.895%
12,CCOc1ccc(CCNC(=O)c2cn(C)c3ccc(S(=O)(=O)N4CCOCC4)cc3c2=O)cc1OCC,inactive: 13.3%
13,Cc1cc(NS(=O)(=O)c2ccc(NC(=O)c3ccccc3F)cc2)nc(C)n1,inactive: -16.1%
14,Cc1cccc(OCC(=O)NCC2(N3CCN(C)CC3)CCCCC2)c1C,inactive: -10.2%
15,CCCNC(=O)C(=O)NCC(c1ccc2c(c1)OCO2)N1CCOCC1 (stereo not drawn),inactive: -24.7%
16,Cc1ccc(NC(=O)c2ccc3snnc3c2)cc1Cl,inactive: 37.5%
17,CCC(=O)N1CCc2cc(Br)cc(S(=O)(=O)CCC(=O)N3CCN(c4ccccc4OC)CC3)c21,inactive: -18.9%
18,COc1ccc(-c2ccnc3[nH]n(-c4ccccc4)c(=O)c23)cc1,inactive: -26.3%
19,COc1ccccc1N1CCN(S(=O)(=O)c2ccc3[nH]c4c(c3c2)CCCC4)CC1,inactive: -30.9%
20,COc1ccc(C(=O)N2CC(=O)Nc3ccc(C)cc3C2c2ccccc2)c(OC)c1 (stereo not drawn),inactive: -20.7%
21,Cc1ccc(-n2ncc(C(=O)N3CCCCC3)c2C2CCN(C(=O)OC(C)(C)C)CC2)cc1C,inactive: 1.61%
22,Cc1ccc(-c2nc3ccccc3s2)cc1NC(=O)COc1ccccc1,inactive: 37.6%
23,CCOc1ccc(/C=C/c2nc(C#N)c(N3CCCCC3)o2)cc1,inactive: -14.3%
24,Cc1ccc(OCC(=O)NCC2(N3CCOCC3)CCCCC2)cc1C,inactive: -28.5%
